Measured values: PubChem BioAssay AID411 (National Center for Advancing Translational Sciences (NCATS), 2006)
The campaign covered roughly 72,000 compounds. About 1,600 (2.2%) were called active. Inconclusive means that the source gave no clear call. Such entries were picked first, then a sample of the others. The call rests on the fitted dose curve; in most records, active means well fitted inhibition curve with a large enough effect; inconclusive means small, poorly fitted or top-dose-only effect; inactive means flat fitted curve, though single readings scatter. No potency is given beside an inconclusive call; the fits are too rough.
Further: nearly all actives have a fitted effect of over 40% in size.
On the % scale 0 is the no-effect control and ±100 the full control effect; potency means the concentration at half of the fitted maximal effect; tags describe the fitted curve by direction and shape.

What follows are molecules tested against Luciferin 4-monooxygenase (Photinus pyralis) (UniProt P08659) (assay: qHTS Assay for Inhibitors of Firefly Luciferase). Details: purified firefly luciferase, luminescence, 8 min; series mostly up to 57.1 µM; activity change, negative = inhibition: at the top concentration.
UniProt P08659, sequence (P08659 whole entry, looked up): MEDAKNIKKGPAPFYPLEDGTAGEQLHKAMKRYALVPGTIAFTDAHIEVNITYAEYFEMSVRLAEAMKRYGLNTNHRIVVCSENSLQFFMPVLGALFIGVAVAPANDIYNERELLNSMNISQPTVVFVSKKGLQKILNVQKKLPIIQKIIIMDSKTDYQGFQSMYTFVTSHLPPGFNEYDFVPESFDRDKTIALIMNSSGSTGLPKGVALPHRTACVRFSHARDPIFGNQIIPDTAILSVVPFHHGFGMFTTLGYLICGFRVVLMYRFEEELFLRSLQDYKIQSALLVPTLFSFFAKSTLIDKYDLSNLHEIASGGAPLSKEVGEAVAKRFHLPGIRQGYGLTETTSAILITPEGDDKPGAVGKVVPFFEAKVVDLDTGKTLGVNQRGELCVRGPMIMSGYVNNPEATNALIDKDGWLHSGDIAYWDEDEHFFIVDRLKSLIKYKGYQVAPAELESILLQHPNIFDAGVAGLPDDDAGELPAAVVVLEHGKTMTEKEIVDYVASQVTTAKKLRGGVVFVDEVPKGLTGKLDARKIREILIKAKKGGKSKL
In short: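 Titration-based qHTS; buffer 50 mM imidazole pH 7.2, 50 mM KCl, 7 mM MgCl2, 10 uM ATP, 0.01% Tween 20, 0.05% BSA; luciferase/luciferin detector mix added after compound; 8 min, ambient; luminescence.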
For O=c1c(-c2ccc(O)cc2)coc2cc(O)cc(O)c12, the Potency was “inactive”. In the case of Cc1ccc(C(=O)Nc2ncc(Cc3ccccc3)s2)o1, the Potency is reported as active: 12.6 µM. In the case of O=C(Nc1nc(-c2ccco2)cs1)c1ccccc1, the Potency is reported as inconclusive [inhibitor, partial curve]. Cc1nc2sc(C(c3ccco3)N3CCC(Cc4ccccc4)CC3)c(O)n2n1 (stereo not given) was tested, and the Potency was inconclusive [inhibitor, partial curve]. For CCn1c(SCC(=O)Nc2ccc(OCc3ccccc3)cc2)nnc1-c1ccco1, the Potency was inconclusive [inhibitor, partial curve]. COc1ccccc1-c1cc(C(F)(F)F)nc(S(=O)(=O)CCCC(=O)N2CCOCC2)n1 was tested, and the “activity change, negative = inhibition” value was inactive: 1.19%. For Oc1c(C=Nc2cccnc2)sc2ccccc12, the Potency was active: 12.6 µM. In the case of Cc1c(NCc2nc3ccccc3[nH]2)c(=O)n(-c2ccccc2)n1C, the Potency is reported as inconclusive [inhibitor, single point]. NCOC(=O)Cc1ccc(Br)cc1 was tested, and the activity change, negative = inhibition was inactive: 2.27% [at 11.4 µM]. In the case of CCNS(=O)(=O)c1ccc2nc(NC(=O)c3cccnc3)sc2c1, the Potency is reported as inconclusive [inhibitor, partial curve]. In the case of COc1ccc(NC(=O)c2cc(-c3ccccc3OC)on2)cc1, the Potency is reported as inconclusive [inhibitor, single point]. With COc1cccc2sc(Nc3nc(-c4ccccn4)cs3)nc12 the Potency was inconclusive [inhibitor, single point]. For CC(C)NC(=O)N1CCCC2(CCN(C(=O)c3ccco3)CC2)C1, the activity change, negative = inhibition was inactive: 0.677% [at 11.4 µM]. With CC(=NC1CCCCC1)c1ccccc1O the activity change, negative = inhibition was inactive: 0.536% [at 11.4 µM]. With NC(=S)c1ccc[n+]([C@@H]2O[C@@H](COP(=O)([O-])OP(=O)(O)OC[C@@H]3O[C@@H](n4cnc5c(N)ncnc54)[C@@H](OP(=O)(O)O)[C@H]3O)[C@@H](O)[C@H]2O)c1 the “activity change, negative = inhibition” value was inactive: 2.66%. COc1ccccc1-c1nc(C#N)c(N2CCN(c3cccc(Cl)c3)CC2)o1 was tested, and the “activity change, negative = inhibition” value was inactive: 2.35%. O=C(Oc1ccc2c(c1)OCO2)c1cc2c(s1)CCC2 was tested, and the Potency was inconclusive [inhibitor, single point]. For Cc1cc(C(=O)COC(=O)c2ccc3c(c2)OCO3)c(C)n1Cc1cccs1, the Potency was inconclusive [inhibitor, single point]. CCn1ccc(C(=O)Nc2ccc(Cl)cn2)n1 was tested, and the Potency was inconclusive [inhibitor, single point]. In the case of O=c1[nH]n(-c2ncnc3c2cnn3-c2ccccc2)c(=O)c2ccccc12, the Potency is reported as inconclusive [inhibitor, partial curve]. COc1ccc2nc(NC(=O)c3cccc(OCc4c(C)noc4C)c3)sc2c1 was tested, and the Potency was active: 12.6 µM. CCc1ccc(NC(=O)c2cc(C(C)C)on2)cc1 was tested, and the Potency was active: 12.6 µM. With Cc1cc(=O)n2[nH]c(-c3ccc(F)cc3)cc2n1 the Potency was inconclusive [inhibitor, single point]. With CC(=O)c1cccc(NC(=O)Nc2ccc3c(c2)N(C)C(=O)CS3)c1 the Potency was active: 15.8 µM. For CN(C)c1ccc(-c2nc(-n3ccnc3)c3ccccc3n2)cc1, the Potency was inconclusive [inhibitor, single point]. In the case of COc1ccc2c(-c3cccnc3)cc(=O)[nH]c2c1, the “activity change, negative = inhibition” value is reported as inactive: 1.7%. With COc1cccc(NC(=O)c2cccs2)c1 the Potency was inconclusive [inhibitor, partial curve]. With Cc1c(NC(=O)c2ccco2)cccc1-c1nc2cccnc2s1 the Potency was inconclusive [inhibitor, partial curve]. Fc1cccc(CSc2nc3ccncc3[nH]2)c1 was tested, and the “activity change, negative = inhibition” value was inactive: -27.5%. Fc1ccccc1OCCSc1nnnn1-c1ccccc1 was tested, and the Potency was active: 15.8 µM. With CCn1c(C(=O)OC)cc2c1ccn2-c1ccc(F)cc1 the Potency was inconclusive [inhibitor, single point]. COc1ccccc1NC=C1C(=O)OC(C)(C)OC1=O was tested, and the Potency was active: 15.8 µM. In the case of Clc1ccc(-n2ncc3c(NCc4cccs4)ncnc32)cc1, the Potency is reported as inconclusive [inhibitor, partial curve]. With CC(C)C(NC(=O)OCc1ccccc1)C(=O)OCC(=O)N1CCCCC1 (stereo not given) the “activity change, negative = inhibition” value was inactive: -6.54%. With Nc1nc2nccc(-c3ccc(Cl)cc3)n2n1 the Potency was inconclusive [inhibitor, partial curve]. For O=C(c1ccccc1F)N1CCN(Cc2cccc(Cl)c2)CC1, the “activity change, negative = inhibition” value was inactive: 3.96%. For O=C(NCCCN1CCOCC1)c1cc(-c2ccc(Br)cc2)on1, the Potency was inconclusive [inhibitor, single point]. With COc1ccc(-c2noc(-c3ccccc3C(=O)Nc3cccc(OC)c3)n2)cc1 the Potency was inconclusive [inhibitor, single point]. With Cc1nc(SCC(=O)Nc2ccc(F)cc2)c2oc3ccccc3c2n1 the “activity change, negative = inhibition” value was inactive: 1.36%. O=C(CCCc1ccccn1)c1ccccc1 was tested, and the Potency was inconclusive [inhibitor, single point]. In the case of O=C(Nc1ccc(Oc2ccccc2)cc1)c1ccco1, the Potency is reported as active: 15.8 µM. In the case of O=C(Nc1ccc(N2CCCCC2)c(Cl)c1)c1cccnc1, the Potency is reported as inconclusive [inhibitor, single point]. With O=C(O)c1cc(-c2ccc(-c3ccccc3)cc2)nc2cc3ccccc3cc12 the Potency was inconclusive [inhibitor, full curve, poor fit]. In the case of COc1ccc(NC(=O)c2cc3ccccn3n2)cc1, the Potency is reported as active: 6.31 µM. With CCc1ccc(CNc2ccc(O)cc2)cc1 the “activity change, negative = inhibition” value was inactive: -9.12%. With Cc1onc(-c2ccccc2Cl)c1C(=O)Nc1cccc2nsnc12 the “activity change, negative = inhibition” value was inactive: -0.621%. In the case of O=C(Nc1ccc2c(c1)OCO2)c1c(F)cccc1F, the Potency is reported as inconclusive [inhibitor, partial curve]. Nc1ccc(C(=O)c2ccc3c(c2)OCCO3)cc1N was tested, and the Potency was inconclusive [inhibitor, single point]. In the case of O=C(NC1CC1)c1cc2c(s1)-c1ccccc1OC2, the Potency is reported as inconclusive [inhibitor, partial curve]. For Nc1nc2ccc(N3CCOCC3)cc2s1, the Potency was active: 15.8 µM.
